From patent US12116397B2, “IL-IR-I binding polypeptide” (Swedish Orphan Biovitrum AB (publ), priority 2017, dated 2024)
pIC50, pKd: −log10 of the molar value.

How the values were obtained:
[1] = Circular dichroism (CD) spectroscopy analysis, melting temperature and refolding; type: physicochemical; conditions: His6-tagged Z variants, CD variable temperature measurement, Table 13
Protocol: Purified His6-tagged Z variants were diluted to 0.5 mg/ml in PBS. For each diluted Z variant, a CD spectrum at 250-195 nm was obtained at 20° C. In addition, a variable temperature measurement (VTM) was performed to determine the melting temperature (Tm). In the VTM, the absorbance was measured at 221 nm while the temperature was raised from 20 to 90° C., with a temperature slope of 5° C./min. A new CD spectrum was obtained at 20° C. after the heating procedure in order to study the refolding ability of the Z variants. The CD measurements were performed on a Jasco J-810 spectropolarimeter (Jasco Scandinavia AB) using a cell with an optical path length of 1 mm.
CD was analyzed for His6-tagged Z variants, as described in Example 2.

[2] = system: TF-1 cells; experiment: In vitro IL-1β neutralization assay (TF-1 cell assay); type: cell-based; conditions: His6-Z polypeptides, IL-1β inhibition in TF-1 cell assay, Table 12 (first matured library)
Protocol: The TF-1 cell line proliferates in response to many different cytokines including IL-1β. This cell line was used to assess the ability of primary IL-1R1 binders to inhibit IL-1β actions. TF-1 cells were maintained in RPM11640 with L-glutamine (Lonza) supplemented with 10% FCS (Gibco), Penicillin-Streptomycin (Lonza) and 2 ng/ml rhGM-CSF (R&D Systems). Prior to use, cells were washed twice in RPM11640 without rhGM-CSF. Cells were then counted and dispensed into 96 well flat bottomed plates at a density of 3×10^4 cells per well. In separate plates, serial dilutions of the inhibitory binders; His6-tagged IL-1R-I binding Z variants, with a concentration range of 400-0.1 nM, or the IL-1R-I binding protein Kineret (anakinra, Sobi), with a concentration range of 0.3-0.0003 nM, were incubated in the presence of 0.6 nM IL-1β (PeproTech). The pre-mixed complexes of the Z variant polypeptides and IL-13 were transferred to wells containing TF-1 cells. The cells were stimulated for 72 h at 37° C. in a humidified 5% CO2 atmosphere. During the last four hours of incubation, 19 μl of 2× diluted CCK-8 (Fluka, Sigma Aldrich), was added per well to determine the proliferative responses. The absorbance was measured at 450 nm using a microplate reader (Victor3, Perkin Elmer). The data on cell growth was assessed by non-linear regression to a four-parameter dose-response curve, and the half maximal inhibitory concentration (IC50) was determined using GraphPadPrism program.
His6-tagged IL-1R-I specific Z variants were tested for their inhibitory capacity in the TF-1 cell assay. The assay was run as described in Example 2. The data on cell growth was assessed by non-linear regression to a four-parameter dose-response curve, and IC50 values were determined using GraphPadPrism program. His6-tagged Z12967 was included for comparison.
His6-tagged IL-1R-I specific Z variants were tested for their inhibitory capacity in the TF-1 cell assay. The assay was run as described in Example 2. The data on cell growth was assessed by non-linear regression to a four-parameter dose-response curve, and IC50 values were determined using GraphPadPrism program. His6-tagged Z12967, Z16065, Z16163 and Z18557 were included for comparison.

[3] = target: T1, hIL-1R-I (Homo sapiens, UniProt P14778); experiment: Biacore affinity/kinetic analysis of His6-tagged Z variants, human IL-1R-I; type: binding; conditions: His6-Z polypeptides, 100, 10 and 1 nM (Example 5); for pKd: read-out: KD
T1 construct: purchased R&D Systems 269-1R/CF
T1 sequence (P14778 18-569): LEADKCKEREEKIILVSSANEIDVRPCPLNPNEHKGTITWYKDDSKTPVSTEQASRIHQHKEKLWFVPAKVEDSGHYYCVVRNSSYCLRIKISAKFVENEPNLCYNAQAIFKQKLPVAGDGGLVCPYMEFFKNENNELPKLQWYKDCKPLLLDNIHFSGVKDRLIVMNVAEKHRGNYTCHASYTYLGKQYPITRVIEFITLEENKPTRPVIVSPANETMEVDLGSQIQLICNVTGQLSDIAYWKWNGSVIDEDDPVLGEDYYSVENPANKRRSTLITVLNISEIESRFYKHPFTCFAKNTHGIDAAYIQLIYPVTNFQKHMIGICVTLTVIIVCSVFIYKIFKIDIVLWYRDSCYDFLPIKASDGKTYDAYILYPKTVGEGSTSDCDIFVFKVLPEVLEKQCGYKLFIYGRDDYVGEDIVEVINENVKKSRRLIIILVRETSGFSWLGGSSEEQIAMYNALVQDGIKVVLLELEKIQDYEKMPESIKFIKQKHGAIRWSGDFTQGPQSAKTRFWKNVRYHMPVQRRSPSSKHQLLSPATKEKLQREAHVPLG
Protocol: Affinities (KD) for human and cynomolgus IL-1R-I were determined for His6-tagged Z variants using a Biacore 2000 instrument (GE Healthcare). hIL-1R-I or cIL-1R-I-His6 was immobilized on the carboxylated dextran layer in different flow cells of a CM5 chip (GE Healthcare, cat. no. BR100012). The immobilization was performed using amine coupling chemistry according to the manufacturer's protocol. Acetate pH 4.5 (GE Healthcare, cat. no. BR100350) was used for ligand dilution and HBS-EP (GE Healthcare, cat. no. BR100188) was used as running buffer. One flow cell surface on the chip was activated and deactivated for use as blank during analyte injections. In the kinetic experiment, HBS-EP was used as running buffer, the flow rate was 50 μl/min and the temperature was 25° C. The analytes, i.e. the Z variants, were each diluted in HBS-EP buffer to final concentrations of 40 nM and 10 nM, and were injected over the target chip surfaces for 2 min, followed by dissociation in running buffer for 8 min. Kinetic constants were calculated from the obtained sensorgrams using a 1:1 binding model, in the BiaEvaluation software 4.1 (GE Healthcare).
The kinetic constants (kon and koff) and affinities (KD) for human and cynomolgus IL-1R-I were determined for His6-tagged Z variants using a Biacore 2000 instrument (GE Healthcare). The experiment was run essentially as described in Example 2, using 100, 10 and 1 nM of the Z variants. The analyte injection time was 3 min followed by 15 min dissociation and 2×5 s glycine pH 3.0 (GE Healthcare, cat. no. BR100357), supplemented with 0.5 M NaCl, was used for regeneration of the surfaces between the cycles. Kinetic constants were calculated from the obtained sensorgrams of two or three concentrations of the respective Z variant, using a 1:1 binding model in the BiaEvaluation software 4.1 (GE Healthcare). His6-tagged Z12967 was included in the assay for comparison.
The kinetic constants (kon and koff) and affinities (KD) for human and cynomolgus IL-1R-I were determined for His6-tagged Z variants using a Biacore 2000 instrument (GE Healthcare). The experiment was run essentially as described in Example 5, using 48, 12, 3 and 0.75 nM of the Z variants. The analyte injection time was 3 min followed by 6 min dissociation and 2×5 s glycine pH 3.0, supplemented with 0.5 M NaCl, was used for regeneration of the surfaces between the cycles. Kinetic constants were calculated from the obtained sensorgrams of three or four concentrations of the respective Z variant, using a 1:1 binding model in the BiaEvaluation software 4.1 (GE Healthcare). His6-tagged Z12967 (SEQ ID NO:9), Z16065 (SEQ ID NO:268), Z16163 (SEQ ID NO:359) and Z18557 (SEQ ID NO:1205) were included in the assay for comparison.

Substance | Melting temperatures (Tm) [1] | pIC50 [2] | koff [3] | kon [3] | pKd [3]
Z16245: IL-1R-I binding Z variant (VDAKYAKEVETAYFEIFALPNLTRKQYTAFIRKLLDDPSQSSELLSEAKKLNDSQAPK; Engineered IL-1R-I binding polypeptide) | 63 °C | 8.09 | 0.0031 s⁻¹ | 2.7e+06 M⁻¹ s⁻¹ | 8.92
Z16219: IL-1R-I binding Z variant (VDAKYAKEIEHAQLEIFSLPNLTRKQYTAFIRKLLDDPSQSSELLSEAKKLNDSQAPK; Engineered IL-1R-I binding polypeptide) | – | 7.62 | 0.0056 s⁻¹ | 2.5e+06 M⁻¹ s⁻¹ | 8.66
Z16301: IL-1R-I binding Z variant (VDAKYAKEIEAAQMEIFELPNLTRKQYTAFIRKLLDDPSQSSELLSEAKKLNDSQAPK; Engineered IL-1R-I binding polypeptide) | – | 8.35 | 0.0021 s⁻¹ | 3.1e+06 M⁻¹ s⁻¹ | 9.18
Z16363: IL-1R-I binding Z variant (VDAKYAKEVEQAQMEIFRLPNLTRKQYTAFIRKLLDDPSQSSELLSEAKKLNDSQAPK; Engineered IL-1R-I binding polypeptide) | – | 8.09 | 0.0018 s⁻¹ | 3.2e+06 M⁻¹ s⁻¹ | 9.24
Z16255: IL-1R-I binding Z variant (VDAKYAKETEDAYMEIYALPNLTRKQYTAFIRKLLDDPSQSSELLSEAKKLNDSQAPK; Engineered IL-1R-I binding polypeptide) | – | 8.07 | 0.0031 s⁻¹ | 3e+06 M⁻¹ s⁻¹ | 9.00
Z16007: IL-1R-I binding Z variant (VDAKYAKEVEIAQMEIFSLPNLTRKQYTAFIRKLFDDPSQSSELLSEAKKLNDSQAPK; Engineered IL-1R-I binding polypeptide) | – | 8.23 | 0.0021 s⁻¹ | 2.3e+06 M⁻¹ s⁻¹ | 9.04
Z16072: IL-1R-I binding Z variant (VDAKYAKEVEIAQMEIFELPNLTRKQYTAFIRKLLDDPSQSSELLSEAKKLNDSQAPK; Engineered IL-1R-I binding polypeptide) | – | 8.37 | 0.0022 s⁻¹ | 4.6e+06 M⁻¹ s⁻¹ | 9.33
Z15862: IL-1R-I binding Z variant (VDAKYAKEVEIAQMEIFALPNLTRKQYTAFIRKLLDDPSQSSELLSEAKKLNDSQAPK; Engineered IL-1R-I binding polypeptide) | – | 8.18 | 0.0019 s⁻¹ | 2.8e+06 M⁻¹ s⁻¹ | 9.17
Z16378: IL-1R-I binding Z variant (VDAKYAKEVESAYFEIFKLPNLTRKQYTAFIRKLLDDPSQSSELLSEAKKLNDSQAPK; Engineered IL-1R-I binding polypeptide) | – | 7.49 | 0.0036 s⁻¹ | 6.6e+06 M⁻¹ s⁻¹ | 9.26
Z17274: IL-1R-I binding Z variant (VDAKYAKEIEVAYMEIYHLPNLTRKQYTAFIRKLLDDPSQSSELLSEAKKLNDSQAPK; Engineered IL-1R-I binding polypeptide) | – | 8.34 | 0.0024 s⁻¹ | 1.1e+07 M⁻¹ s⁻¹ | 9.66
Z17292: IL-1R-I binding Z variant (VDAKYAKEVEYAYFEIYSLPNLTRKQYTAFIRKLLDDPSQSSELLSEAKKLNDSQAPK; Engineered IL-1R-I binding polypeptide) | – | 7.88 | 0.005 s⁻¹ | 1.3e+07 M⁻¹ s⁻¹ | 9.42
Z16165: IL-1R-I binding Z variant (VDAKYAKEIEVAQMEIYSLPNLTRKQYTAFIRKLFDDPSQSSELLSEAKKLNDSQAPK; Engineered IL-1R-I binding polypeptide) | – | 7.94 | 0.0036 s⁻¹ | 2.1e+06 M⁻¹ s⁻¹ | 8.77
Z16143: IL-1R-I binding Z variant (VDAKYAKEIEAAQMEIFRLPNLTRKQYTAFIRKLLDDPSQSSELLSEAKKLNDSQAPK; Engineered IL-1R-I binding polypeptide) | – | 8.32 | 0.0016 s⁻¹ | 3.1e+06 M⁻¹ s⁻¹ | 9.28
